# PubChem BioAssay AID1347120 (National Center for Advancing Translational Sciences (NCATS), 2019)
# Out of some 390,000 compounds screened, about 930 (0.24%) were called active. The shares of active, inactive and inconclusive entries below differ from those in the screen. The call rests on the fitted dose curve; in most records, active means well fitted activation curve with a large enough effect; inconclusive means small, poorly fitted or top-dose-only effect; inactive means no such curve, though single readings can be large or run the other way. Where the call is inconclusive, the potency comes from a doubtful curve fit.
# Assay: qHTS for Suppressors of FUS Proteinopathy: Primary screen using FUS-linked yeast assay; further: nearly all actives have a fitted effect of over 55% in size
# Settings: S. cerevisiae FUS-expressing, OD600, 24 h; Potency: growth rescue; series mostly up to 76.6 µM
# Method in brief: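 S. cerevisiae expressing FUS from galactose induction served as the toxicity model. Growth after 24hr at 30C, read as absorbance at 600 nm, indicates suppression of toxicity; compounds dosed at several concentrations.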
# Potency means the concentration at half of the fitted maximal effect; tags describe the fitted curve by direction and shape.
row,SMILES,Potency
1,Cc1ccc(C2CCN(C(=O)c3cnn(-c4ccccc4Cl)c3C3CCN(C(=O)OC(C)(C)C)CC3)C2)cc1 (stereo not given),"inconclusive: 28.2 µM [activator, single point]"
2,Cc1ccc(Cn2nnc3c(=O)[nH]c(C4CCN(S(=O)(=O)Cc5ccccc5)CC4)nc32)cc1,"inconclusive: 0.891 µM [activator, full curve, poor fit]"
3,COc1ccc(CN(C(=O)c2ccc(-c3ccccc3)[nH]2)C(C(=O)NC(C)(C)C)c2ccncc2)cc1 (stereo not given),"inconclusive: 20 µM [activator, partial curve, poor fit]"
4,CCOc1ccc(CNC(=O)c2ccc(Sc3ccc(C)cc3)c(NC(C)=O)c2)cc1OC,"inconclusive: 28.2 µM [activator, partial curve, poor fit]"
5,CCN(CC)S(=O)(=O)c1ccc2nc(CSc3nnnn3-c3ccc(O)cc3)[nH]c2c1,"inconclusive: 50.1 µM [activator, single point]"
6,CN(C)c1ccc(C2C3C(=O)N(c4ccc(C(=O)O)cc4)C(=O)C3ON2c2ccccc2)cc1 (stereo not given),"inconclusive: 20 µM [activator, partial curve, poor fit]"
7,COc1ccc(OC)c(NC(=O)CN2C(=O)CC(c3ccco3)Sc3ccccc32)c1 (stereo not given),"inconclusive: 31.6 µM [activator, partial curve, poor fit]"
8,CCn1c(CN2CCN(c3cccc(Cl)c3)CC2)nc2c1c(=O)[nH]c(=O)n2C,inactive
9,CC(=O)Nc1ccc(NC2=C/C(=N/S(=O)(=O)c3cccs3)c3ccccc3C2=O)cc1,inactive
10,COCCCNc1ncnc2c1c(-c1ccccc1)cn2-c1ccc(C)c(Cl)c1,inactive
11,Cc1ccc(C)c(N2CCN(C(=O)c3cccc(-n4c(C)nc5cccnc54)c3)CC2)c1,"inconclusive: 25.1 µM [activator, partial curve, poor fit]"
12,O=C(Nc1nc2ccsc2c(=O)s1)c1ccco1,inactive
13,COc1ccc(C(=O)Nc2cccc(-c3csc(C)n3)c2)cc1S(=O)(=O)N1CCCC1,"inconclusive: 39.8 µM [activator, single point]"
14,CCc1ccc(NC(=O)CSC2=Nc3ccccc3C3=NC(CCC(=O)NCc4ccccc4OC)C(=O)N23)cc1 (stereo not given),inactive
15,CN1OC[C@@H]2CN(C(=O)c3ccco3)[C@H](c3ccc(-c4ccc(C#N)cc4)cc3)C[C@@H]21,"inconclusive: 44.7 µM [activator, single point]"
16,O=C(NC1CCSc2ccccc21)c1ccc([N+](=O)[O-])cc1 (stereo not given),inactive
17,CC(=O)Nc1cc(C(=O)NCc2ccccc2)ccc1Sc1ccc(C)cc1,"inconclusive: 50.1 µM [activator, single point]"
18,CCn1c(-c2cc(-c3ccc(OC(C)C)cc3)nc3ccccc23)n[nH]c1=S,active: 35.5 µM
19,COc1cccc(NC(=O)CSc2nc3ccccc3nc2N2CCOCC2)c1,"inconclusive: 50.1 µM [activator, single point]"
20,COC(=O)c1ccccc1NC(=O)C1CCN(C(=O)N2CCOc3ccccc32)CC1,"inconclusive: 31.6 µM [activator, partial curve, poor fit]"

row,SMILES,Potency
1,Cc1csc2nc(COC(=O)c3ccccc3NC(=O)c3ccc(F)cc3)cc(=O)n12,inactive
2,Cc1ccc(C)c(N2CCN(C(=O)c3ccc(CS(=O)(=O)c4ccc(Br)cc4)o3)CC2)c1,"inconclusive: 35.5 µM [activator, partial curve, poor fit]"
3,C#CCOCCOCCOCCNc1nc(N2CCN(C(=O)CCCCCCCCCCNC(=O)[C@@H](CCSC)n3cc(CCO)nn3)CC2)nc(N2CCN(C(=O)CCCCCCCCCCNC(=O)[C@H]([C@@H](C)CC)n3cc(CCCCCN)nn3)CC2)n1,"inconclusive: 28.2 µM [activator, partial curve, poor fit]"
4,CC(=O)O[C@H]1[C@H](OC(C)=O)C[C@]2(OC(C)=O)C[C@H]1OC2=O,inactive
5,COc1ccc(C(=O)[C@H]2[C@H]3C(=O)N(c4ccc(OC(C)=O)cc4)C(=O)[C@H]3C3C=CC=NN32)cc1 (stereo not given in full),"inconclusive: 50.1 µM [activator, single point]"
6,O=[N+]([O-])c1ccccc1S(=O)(=O)Nc1cccc(-c2ccc3nncn3n2)c1,"inconclusive: 50.1 µM [activator, single point]"
7,CCN(CC)c1ccc(N=Cc2c(C)[nH]c3ccccc23)cc1,"inconclusive: 39.8 µM [activator, single point]"
8,CCCC#Cc1cnc2c(c1)C(=O)N([C@H](C)CO)C[C@@H](C)[C@H](CN(C)S(=O)(=O)c1cccc(OC)c1)O2,"inconclusive: 25.1 µM [activator, partial curve, poor fit]"
9,CC1(C)CC(n2c(NCCO)nc3c(c2=O)C2(CCCC2)Cc2ccccc2-3)CCO1 (stereo not given),"inconclusive: 35.5 µM [activator, single point]"
10,COc1ccc(CCNC(=O)CCc2ccc(S(=O)(=O)NCC(C)C)cc2)cc1OC,inactive
11,CCn1c(CNC(=O)COc2ccc(C(C)C)cc2)nnc1SCC(=O)Nc1ccccc1,"inconclusive: 44.7 µM [activator, partial curve, poor fit]"
12,Cc1ccc2c(CC(=O)NCc3ccc4c(c3)OCO4)coc2c1,"inconclusive: 50.1 µM [activator, single point]"
13,O=CNc1cc(-c2ccc(C(=O)NC3CC3)cc2)cn2c(-c3ccc(F)cc3)cnc12,"inconclusive: 35.5 µM [activator, single point]"
14,CN(C(=O)c1cccc(NC(=O)Cc2cccc(NC(=O)C3CCCN(C(=O)CCc4ccccc4)C3)c2)c1)C1CCC1 (stereo not given),"inconclusive: 50.1 µM [activator, single point]"
15,CC(C)N1C(=O)/C(=C\c2nc3ccccc3c(=O)[nH]2)c2ccccc21,"inconclusive: 0.891 µM [activator, full curve, poor fit]"
16,O=C1C(=O)N(C2CCN(S(=O)(=O)c3ccc(F)cc3)CC2)CCN1Cc1ccccc1,inactive
17,CCOC(=O)c1cccc(NC(=O)CN2C(=O)CC(C)(C)Sc3ccccc32)c1,"inconclusive: 35.5 µM [activator, single point]"
18,CCN(C(=O)c1oc2ccc(S(=O)(=O)N3CCCCCC3)cc2c1C)c1ccccc1,"inconclusive: 25.1 µM [activator, single point]"
19,Cc1cc(SCC(=O)Nc2cccc(S(=O)(=O)NC3=NCCCCC3)c2)nc2ccccc12,"inconclusive: 17.8 µM [activator, partial curve, poor fit]"
20,CS(=O)(=O)Nc1ccc(C2=NN(C(=O)C3CCCCC3)C(c3cccs3)C2)cc1 (stereo not given),"inconclusive: 11.2 µM [activator, partial curve, poor fit]"

row,SMILES,Potency
1,N#Cc1ccc(OS(=O)(=O)c2ccc(-c3ccon3)s2)cc1,inactive
2,S=c1[nH]nc(-c2cc(-c3ccccc3)n[nH]2)n1/N=C/c1c2ccccc2cc2ccccc12,"inconclusive: 8.91 µM [activator, partial curve]"
3,Fc1cccc(COc2ccccc2C(=S)N2CCCC2)c1,inactive
4,COc1ccc(NC(=S)Nc2cccc([N+](=O)[O-])c2)cc1,inactive
5,COc1ccc(C(=O)Nc2ccc3nc(SCC(=O)N4CCCc5ccccc54)sc3c2)cc1,"inconclusive: 22.4 µM [activator, partial curve, poor fit]"
6,O=S(=O)(NCc1cccc(Br)c1)c1ccc(-c2cc(C(F)(F)F)on2)s1,inactive
7,C[C@@H](c1ccccc1)N1C[C@H](COCc2ccccc2)Oc2cc(N3CC[C@H](O)C3)ccc2S1(=O)=O,"inconclusive: 28.2 µM [activator, single point]"
8,CC1CCCC(N2C(=O)NC(NC(=O)c3ccco3)(C(F)(F)F)C2=O)C1C (stereo not given),"inconclusive: 12.6 µM [activator, partial curve]"
9,Cc1cccc(C(=O)N[C@H](C(=O)OCC(=O)NC(=O)c2cccn2C)C(C)C)c1,"inconclusive: 31.6 µM [activator, partial curve, poor fit]"
10,COc1cc(OC)cc(C(=O)NC2CCN(C(=O)N3c4ccccc4Sc4ccccc43)CC2)c1,"inconclusive: 12.6 µM [activator, partial curve, poor fit]"
11,Cc1nn(CC(=O)NCc2ccccc2Cl)c(=O)c2nn(-c3ccccc3)c(C)c12,inactive
12,COc1ccc(CNC(=O)Cn2c(SCC(=O)Nc3ccc(C)c(C)c3)nc3ccccc32)cc1,"inconclusive: 10 µM [activator, partial curve, poor fit]"
13,CCOc1ccc(-c2nc(SCC(=O)NCCOC)c(-c3ccc(OC)c(OC)c3)[nH]2)cc1,inactive
14,CCc1ccc(-n2nc(C)c3c(C(=O)Nc4cc(OC)cc(OC)c4)cc(C)nc32)cc1,"inconclusive: 35.5 µM [activator, single point]"
15,O=C(CSC1=Nc2ccccc2C2=NC(Cc3ccccc3)C(=O)N12)Nc1ccccc1F (stereo not given),"inconclusive: 50.1 µM [activator, single point]"
16,CCn1c(CNc2ccc(Cl)cc2)nnc1SCc1ccc(Cl)cc1,"inconclusive: 25.1 µM [activator, single point]"
17,Cc1ccc(F)cc1NC(=O)c1c(-c2ccccc2)noc1C,inactive
18,CCC(C)(C)c1ccc(Oc2ccc(N)cc2)cc1,inactive
19,COc1ccc(C(=O)NCC(=O)OCC(=O)Nc2sccc2C#N)cc1OC,"inconclusive: 39.8 µM [activator, single point]"
20,c1ccc2c3c([nH]c2c1)-c1[nH]ncc1CC3,inactive
